Assay results taken from PubChem BioAssay AID602310 (National Center for Advancing Translational Sciences (NCATS), 2012).
About 310 (0.076%) of roughly 410,000 compounds were called active. This list was built around the results that the source calls inconclusive (neither active nor inactive); the mix of calls is not that of the screen. Calls come from the whole dose curve; as a rule, active = well fitted curve in the direction sought with a large enough effect; inconclusive = small, poorly fitted or top-dose-only effect; inactive = flat fitted curve, though single readings scatter. Potencies beside an inconclusive call are fits to weak or partial responses and may not hold up.

Biological target: DNA dC->dU-editing enzyme APOBEC-3G (Homo sapiens) (UniProt Q9HC16)
Assay: qHTS for Inhibitors of Vif-A3G Interactions: qHTS; note: nearly all actives have a fitted effect of over 60% in size
Details: HeLa A3G-eYFP + Vif (tagged APOBEC3G with the HIV-1 protein that degrades it), YFP fluorescence, overnight; series mostly up to 46.1 µM
In short: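 Read-out is eYFP fluorescence (Ex 488/Em 500-530) from Vif-expressing HeLa A3G-eYFP cells; more signal means A3G escaped Vif-mediated degradation. Cells plated overnight, compound pinned in, incubated overnight at 37 deg C.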
Potency is the fitted concentration of half-maximal effect; tags give direction and shape of the fitted curve.

Chain of UniProt Q9HC16 (Q9HC16 whole entry, looked up): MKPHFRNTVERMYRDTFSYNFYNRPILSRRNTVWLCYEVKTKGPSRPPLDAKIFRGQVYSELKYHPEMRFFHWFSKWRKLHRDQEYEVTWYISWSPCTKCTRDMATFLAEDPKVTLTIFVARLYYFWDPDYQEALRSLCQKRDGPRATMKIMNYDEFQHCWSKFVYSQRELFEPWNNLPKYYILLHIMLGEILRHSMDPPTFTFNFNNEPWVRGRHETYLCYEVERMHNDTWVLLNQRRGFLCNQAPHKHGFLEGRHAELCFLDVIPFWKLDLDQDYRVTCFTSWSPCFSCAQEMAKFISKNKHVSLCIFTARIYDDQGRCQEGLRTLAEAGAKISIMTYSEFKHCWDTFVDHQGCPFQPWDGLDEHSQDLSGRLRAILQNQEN

| Structure (SMILES) | Potency |
| --- | --- |
| CC1C(OC(=O)CCC(=O)NC(C)(C)CO)O[C@H]2OC3(C)CC[C@H]4[C@H](C)CCC1C24OO3 (some centres not stated) | inactive |
| COc1ccc(CNS(=O)(=O)c2cc3c(cc2C)N(C)CCO3)cc1 | inconclusive: 20 µM [inhibitor, single point] |
| ClC1=C(Cl)C(Cl)=C(Cl)C1=C/C=C/c1ccccc1 | inconclusive: 3.16 µM [inhibitor, single point] |
| Cc1ccc2c(c1)C1CN(C)CCC1N2C(=O)c1cn(-c2ccccc2)nc1-c1ccccc1 (configuration not stated) | inconclusive: 20 µM [inhibitor, single point] |
| Cc1c2ccncc2c(C)c2c1[nH]c1ccccc12 | inconclusive: 15.8 µM [inhibitor, partial curve, poor fit] |
| O=C1NC(=O)N(c2ccccc2)C(=O)/C1=C/C=C/c1ccco1 | inconclusive: 31.6 µM [inhibitor, single point] |
| CC/C(=C\C=C\[C@@H]1C=C[C@@H]2CCC[C@H]2[C@@H]1C(=O)c1ccc[nH]1)[C@@H]1O[C@@H]([C@@H](C)C(=O)O)CC[C@@H]1C | inactive |
| C=CCN1C(=O)NC(=O)/C(=C/c2ccc(OC)c(COc3ccc(NC(C)=O)cc3)c2)C1=O | inconclusive: 22.4 µM [inhibitor, single point] |
| Cc1cccc(NC(=O)c2cc3c(=O)n4ccccc4nc3n2C)c1C | inconclusive: 1 µM [inhibitor, full curve, poor fit] |
| O=C1NC(=O)N(c2ccccc2)C(=O)/C1=C\c1ccc([N+](=O)[O-])s1 | inactive |
| O=c1c2ccccc2nc(/C=C/c2ccc(O)c(O)c2)n1-c1ccccc1 | inconclusive: 11.2 µM [inhibitor, partial curve, poor fit] |
| Cc1ccc(C)c(NC(=O)CSc2nnc([C@@H](N)Cc3c[nH]c4ccccc34)o2)c1 | inactive |
| ClCCN(CCCl)c1ccc(/C=C/c2ccnc3ccccc23)cc1 | inconclusive: 12.6 µM [inhibitor, partial curve] |
| C=CCn1c(O)c(/C=C2/C=CC=N2)c(=O)[nH]c1=O | inconclusive: 22.4 µM [inhibitor, single point] |
| Cc1cc(C)cc(N2C(=O)NC(=O)/C(=C\C=C\c3ccco3)C2=O)c1 | inconclusive: 3.16 µM [inhibitor, full curve] |
| Cc1cc2ccccn2c1C(C[N+](=O)[O-])c1c(F)cccc1Cl (configuration not stated) | inconclusive: 35.5 µM [inhibitor, single point] |
| Cc1ccccc1-n1c(O)c(/C=C2/C(c3ccccc3)=Nc3ccccc32)c(=O)[nH]c1=O | inconclusive: 1.58 µM [inhibitor, full curve, poor fit] |
